Laboratory results reported in patent publication US20230203096A1, “EPHA4 TARGETING COMPOUNDS AND METHODS OF USE THEREOF” (priority 2020, published 2023).
Not every detail of the peptide structures is certain; ends, links or a residue may be inferred. At least one compound was matched to its structure with a doubt left. Square brackets hold non-standard residues; d marks the D form. Peptide text beside a SMILES is read from it. * marks the point of attachment. Trp(5-OH) = N[C@@H](Cc1c[nH]c2ccc(O)cc12)C(=O)O; NHPh(4-CH2-morpholino) = c1cc(N*)ccc1CN1CCOCC1; NH(4-morpholinophenyl) = c1cc(N2CCOCC2)ccc1N*; Trp(7-aza) = N[C@@H](Cc1c[nH]c2ncccc12)C(=O)O; Bip = N[C@@H](Cc1ccc(-c2ccccc2)cc1)C(=O)O; hArg = N=C(N)NCCCC[C@H](N)C(=O)O; X4 = COc1cc(CN*)cc(OC)c1; GABA = NCCCC(=O)O; X5 = Oc1ccccc1CN*; X6 = Oc1cccnc1N*

Legend:
[1] = molecular target: T1, ^13C^ε-Met-labeled EphA4-LBD (Homo sapiens, UniProt P54764, C204A); assay: 2D [13C,1H] HSQC NMR chemical shift perturbation of Met resonances; type: binding; details: test ligands at 40 μM, EphA4-LDB at 20 μM; for Δδ ^13C^ϵ/^1H^ϵ Metl64: Table 5
T1 construct: His tag (N); made in house; host or cells: E. coli Rosetta-Gami B(DE3), pET15b
Procedure: Peptides were synthesized by using standard solid-phase synthesis protocol, using the BAL resin as anchoring for the C-terminal amines. Isothermal Titration Calorimetry (ITC) measurements were performed in a reverse fashion by titrating the protein into the ligand solution. Solution nuclear magnetic resonance (NMR) experiments were conducted on a 700 MHz Bruker Avance spectrometer equipped with a TCI cryoprobe. […]
2D [^13C,^1H] correlation NMR spectra measured with such protein targets, collected in absence or presence of test ligands can be used to monitor ligand binding and make, albeit qualitative, determinations on possible conformational changes induced by test ligands on the protein target. […] In targeting EphA4, an important aspect regarding the activity of its ligands is whether these agents could be predicted to work as antagonists or agonists.
NMR spectra were acquired on Bruker Avance III 700 MHz spectrometer equipped with a TCI cryoprobe. All NMR data were processed and analyzed using TOPSPIN 3.6.1 (Bruker, Billerica, Mass., USA).
Chemical shift changes (A) in the 2D [^13C, ^1H] spectra were calculated as weight average perturbations observed in the ^1H and ^13C dimensions using the following Equation: […]

[2] = molecular target: T2, recombinant EphA4 ligand binding domain (Homo sapiens, UniProt P54764, C204A); assay: Isothermal titration calorimetry (ITC) against EphA4-LBD; details: for Kd: recombinant EphA4 ligand binding domain
T2 construct: His tag (N); made in house; host or cells: E. coli Rosetta-Gami B(DE3), pET15b
Procedure: Peptides were synthesized by using standard solid-phase synthesis protocol, using the BAL resin as anchoring for the C-terminal amines. Isothermal Titration Calorimetry (ITC) measurements were performed in a reverse fashion by titrating the protein into the ligand solution. Solution nuclear magnetic resonance (NMR) experiments were conducted on a 700 MHz Bruker Avance spectrometer equipped with a TCI cryoprobe. Each protein sample was dissolved into an NMR tube at a final concentration of 20 μM (1% DMSO-d6) in the presence of 20 μM of each compound.
The fragments were transformed into Rosetta-Gami B(DE3) competent cells and grown in LB medium at 37° C. with 100 μg/mL of ampicillin until reaching an OD600 of 0.6-0.7 followed by induction with 0.4 mM IPTG overnight at 20° C. Bacteria were then collected by centrifugation and lysed by sonication at 4° C. […] EphA4 LBD with ^13C^ε/^1H^ε-Met labeled was expressed like previously described but adding a suspension of 100 mg of ^13C^ε/^1H^ε-Methionine in 1 mL of DMSO per liter of LB medium, 10 minutes before induction. […] Transformation, expression, and purification of EphA3-LBD chimera was performed as described above for EphA4-LBD.
Isothermal titration calorimetry (ITC) measurements were performed using the Affinity ITC Autosampler from TA Instruments (New Castle, Del.). The titrations were performed in a reverse fashion by titrating the protein into the ligand solution. […] The syringe was filled with a 100 μM solution of EphA4-LBD, EphA3-LBD Chimera, or EphA2-LBD, and 20 injections of 2.5 μL each were performed into the cell containing a 20 μM solution of the compounds. The injections were made at 200 s or 400 s intervals with a stirring speed of 75 rpm. All the solutions were kept in the autosampler at 4° C. The analysis of the thermodynamics signatures and for dissociation constant determination was performed by the NanoAnalyze software (TA Instruments, New Castle, Del.) and subsequently exported into Microsoft Excel.

T1 sequence (P54764 29-209 C204A): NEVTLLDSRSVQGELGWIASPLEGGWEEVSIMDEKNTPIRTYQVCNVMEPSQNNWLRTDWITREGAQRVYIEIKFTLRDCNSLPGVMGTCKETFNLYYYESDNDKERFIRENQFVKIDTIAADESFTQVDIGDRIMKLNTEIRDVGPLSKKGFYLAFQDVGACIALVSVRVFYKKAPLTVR
T2 sequence (P54764 29-209 C204A): as above

N=C(N)NCCCC[C@H](NC(=O)[C@H](Cc1ccc(-c2ccccc2)cc1)NC(=O)[C@H](Cc1c[nH]c2ccccc12)NC(=O)CCCN)C(=O)NCC(=O)Nc1ncccc1O [Compound E23] (H-[GABA]W[Bip][hArg]G-X6)
Δδ ^13C^ϵ/^1H^ϵ Met 164 ([1]; Table 7): + (0< + <0.1 ppm)
-TΔS ([2]; Table 7): 0.86 kcal/mol
AH ([2]; Table 7): -9.48 kcal/mol
Kd ([2]; Table 7): 488 nM

N=C(N)NCCCC[C@H](NC(=O)[C@H](Cc1ccc(-c2ccccc2)cc1)NC(=O)[C@H](Cc1c[nH]c2ccc(O)cc12)NC(=O)[C@H]1CC[C@H](N)C1)C(N)=O [Compound E8]
Δδ ^13C^ϵ/^1H^ϵ Met 164 ([1]; Table 2): −
-TΔS ([2]; Table 2): 0.21 kcal/mol
AH ([2]; Table 2): -8.33 kcal/mol

N=C(N)NCCCC[C@H](NC(=O)[C@H](Cc1ccc(-c2ccccc2)cc1)NC(=O)[C@H](Cc1c[nH]c2ccccc12)NC(=O)CCCN)C(=O)NCC(=O)NCc1ccccc1O [Compound E26] (H-[GABA]W[Bip][hArg]G-X5)
Δδ ^13C^ϵ/^1H^ϵ Met 164 ([1]; Table 7): + (0< + <0.1 ppm)
-TΔS ([2]; Table 7): 3.00 kcal/mol
AH ([2]; Table 7): -11.98 kcal/mol
Kd ([2]; Table 7): 258 nM

N=C(N)NCCC[C@H](NC(=O)[C@H](Cc1ccc(-c2ccccc2)cc1)NC(=O)[C@H](Cc1c[nH]c2ccc(O)cc12)NC(=O)CCCN)C(N)=O [Compound E21] (H-[GABA][Trp(5-OH)][Bip]R-NH2)
Δδ ^13C^ϵ/^1H^ϵ Metl64 [1]: + (0< + <0.1 ppm)
-TΔS ([2]; Table 5): 2.35 kcal/mol
ΔH ([2]; Table 5): -10.99 kcal/mol

COc1cc(CNC(=O)CNC(=O)[C@H](CCCCNC(=N)N)NC(=O)[C@H](Cc2ccc(-c3ccccc3)cc2)NC(=O)[C@H](Cc2c[nH]c3ccccc23)NC(=O)CCCN)cc(OC)c1 [Compound E25] (H-[GABA]W[Bip][hArg]G-X4)
Δδ ^13C^ϵ/^1H^ϵ Met 164 ([1]; Table 7): + (0< + <0.1 ppm)
-TΔS ([2]; Table 7): 2.39 kcal/mol
AH ([2]; Table 7): -11.27 kcal/mol
Kd ([2]; Table 7): 307 nM

C[C@H](N)C(=O)N[C@@H](Cc1c[nH]c2ccccc12)C(=O)N[C@@H](Cc1ccc(-c2ccccc2)cc1)C(=O)N[C@@H](CCCCNC(=N)N)C(N)=O [Compound E1] (H-AW[Bip][hArg]-NH2)
Δδ ^13C^ϵ/^1H^ϵ Met 164 ([1]; Table 2): −
-TΔS ([2]; Table 2): 2.01 kcal/mol
AH ([2]; Table 2): -9.54 kcal/mol

N=C(N)NCCCC[C@H](NC(=O)[C@H](Cc1ccc(-c2ccc(Cl)cc2)cc1)NC(=O)[C@H](Cc1c[nH]c2ccc(O)cc12)NC(=O)CCCN)C(N)=O [Compound E14]
Δδ ^13C^ϵ/^1H^ϵ Met 164 ([1]; Table 4): ++ (0.1 ppm < ++ <0.2 ppm)
-TΔS ([2]; Table 4): 2.00 kcal/mol
ΔH ([2]; Table 4): -10.36 kcal/mol

NCCCC[C@H](NC(=O)[C@H](Cc1ccc(-c2ccccc2)cc1)NC(=O)[C@H](Cc1c[nH]c2ccc(O)cc12)NC(=O)CCCN)C(N)=O [Compound E22] (H-[GABA][Trp(5-OH)][Bip]K-NH2)
Δδ ^13C^ϵ/^1H^ϵ Metl64 [1]: + (0< + <0.1 ppm)
-TΔS ([2]; Table 5): 2.54 kcal/mol
ΔH ([2]; Table 5): -11.21 kcal/mol

N=C(N)NCCCC[C@H](NC(=O)[C@H](Cc1ccc(-c2ccccc2)cc1)NC(=O)[C@H](Cc1c[nH]c2ccccc12)NC(=O)CCCN)C(=O)NCC(=O)Nc1ccc(N2CCOCC2)cc1 [Compound E28] (H-[GABA]W[Bip][hArg]G-{NH(4-morpholinophenyl)})
Δδ ^13C^ϵ/^1H^ϵ Met 164 ([1]; Table 7): ++++ (++++ >0.25 ppm)
-TΔS ([2]; Table 7): 1.63 kcal/mol
AH ([2]; Table 7): -11.22 kcal/mol
Kd ([2]; Table 7): 94 nM

N=C(N)NCCCC[C@H](NC(=O)[C@H](Cc1ccc(-c2ccccc2)cc1)NC(=O)[C@H](Cc1c[nH]c2ncccc12)NC(=O)CCCN)C(N)=O [Compound E11] (H-[GABA][Trp(7-aza)][Bip][hArg]-NH2)
Δδ ^13C^ϵ/^1H^ϵ Met 164 ([1]; Table 3): −
-TΔS ([2]; Table 3): 0.74 kcal/mol
ΔH ([2]; Table 3): -7.27 kcal/mol

N=C(N)NCCCC[C@H](NC(=O)[C@H](Cc1ccc(-c2ccccc2)cc1)NC(=O)[C@H](Cc1c[nH]c2ccccc12)NC(=O)CCCN)C(=O)NCC(=O)Nc1ccc(CN2CCOCC2)cc1 [Compound E29] (H-[GABA]W[Bip][hArg]G-{NHPh(4-CH2-morpholino)})
Δδ ^13C^ϵ/^1H^ϵ Met 164 ([1]; Table 7): +++ (0.2< +++ <0.25)
